# This is one part of the list. Sequences were assembled here from the parent chain. Values near 0.05 are background.
# B1: TEV protease; numbered along this chain (parent)
# chain: MGESLFKGPRDYNPISSSICHLTNESDGHTTSLYGIGFGPFIITNKHLFRRNNGTLVVQSLHGVFKVKDTTTLQQHLVDGRDMIIIRMPKDFPPFPQKLKFREPQREERICLVTTNFQTKSMSSMVSDTSCTFPSGDGIFWKHWIQTKDGQCGSPLVSTRDGFIVGIHSASNFTNTNNYFTSVPKNFMELLTNQEAQQWVSGWRLNADSVLWGGHKVFMVKPEEPFQPVKEATQL
# Variants of: B1
# Assay: raw area under fraction-flipped curve 0-4 h after induction (AUC4h, not background-subtracted), DNA-recorder readout of cleavage of the substrate (dimensionless); higher = more cleavage of the substrate by the protease variant
# Conditions: temperature: 34 °C; time window: 0-4 h after rhamnose induction
# Protocol: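 In vivo DNA recorder in E. coli TOP10(DE3) ΔrhaA at 34 °C. Each TEVp single-site mutant (parent TEVp 0) is paired with a single-site variant of the 7-mer TEVs (canonical ENLYFQ|S). The substrate sits between flexible linkers in a Bxb1-sfGFP-TEVs-SsrA fusion, so cleavage stabilises Bxb1 and speeds flipping of a recombination array, read by NGS. The value is the raw area under the fraction-flipped curve over 0-4 h after rhamnose induction (AUC4h), with ≥20 reads per time point. It is not background-subtracted; inactive controls average about 0.047.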
# 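Note: Bxb1 expression induced with 0.2% (w/v) L-rhamnose at OD600 near 0.5, cultures sampled hourly, flipped fraction per protease–substrate barcode pair counted by paired-end Illumina sequencing.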
Variant,area with substrate EALYFQS,area with substrate ESLYFQS,area with substrate EGLYFQS,area with substrate EILYFQS,area with substrate EQLYFQS,area with substrate ERLYFQS,area with substrate EHLYFQS,area with substrate EKLYFQS,area with substrate EMLYFQS,area with substrate EVLYFQS
G162V,0.0511,0.0746,,,,,,,,
S154V,0.124,,0.0687,0.0853,0.111,0.0682,,,,
R109K,0.115,0.051,,,0.0926,0.116,0.107,0.103,0.0964,0.0768
R109Y,0.107,,0.0671,,,0.111,0.123,,0.108,
S4A,0.107,0.1,0.0979,,,,0.123,,,
G214E,0.117,0.0815,,0.0738,,0.0613,0.086,0.0831,,0.0553
T159V,0.109,0.104,,,0.13,,,,,0.0995
T159K,0.123,0.12,0.0793,,,,,0.104,,
P93C,0.093,0.112,,,0.136,,0.125,,,
G2I,0.164,0.149,0.141,,,,0.158,,,0.153
G2K,,0.096,0.125,0.134,,0.15,,,,
T174C,0.0825,0.0971,,0.0756,0.0796,,0.0846,,0.0831,
T174E,0.108,,,,,0.0882,0.0828,,,
L99E,0.0815,0.0832,0.0815,,,0.069,,0.0816,0.0759,0.0536
C131P,0.117,0.154,,,,,,,,0.11
S124C,0.101,0.0904,0.0937,,,,0.117,0.0888,0.103,0.102
T30D,0.103,0.0739,0.112,,,,,0.0988,0.111,0.098
S182V,0.134,0.114,,,,,,,,0.103
S182C,0.15,0.11,,,,,,0.127,,
R102E,0.0487,0.0535,0.0482,,0.0605,,0.0551,,,0.0418
N206R,0.11,0.0887,0.0611,,0.0872,,,0.0839,0.0947,0.0456
R87V,0.0925,0.108,,,0.0805,,0.0779,,0.0862,0.0735
R87N,0.129,,,0.0744,,,,,,

Variant,area with substrate EALYFQS,area with substrate ESLYFQS,area with substrate EGLYFQS,area with substrate EILYFQS,area with substrate EQLYFQS,area with substrate ERLYFQS,area with substrate EHLYFQS,area with substrate EKLYFQS,area with substrate EMLYFQS,area with substrate EVLYFQS
S60W,0.123,0.139,,0.0965,0.0921,0.103,,0.073,,
K66E,0.154,0.122,0.0995,0.103,0.111,,,0.129,0.0967,0.0996
K66W,0.0921,0.121,,,0.0962,,0.0863,,,
F117P,0.0981,0.0931,,0.0998,0.143,0.117,0.111,0.115,0.109,0.0598
L235C,0.0897,,0.0826,0.0683,,,,,0.106,0.0866
L235P,0.0564,0.112,0.109,0.0929,0.132,0.105,,0.145,,0.0988
L235T,0.132,0.12,0.122,,0.0899,0.101,,0.124,,0.104
L156Y,0.0633,0.0701,0.0522,0.0553,0.0634,0.0554,,0.0624,,
F6T,0.129,0.14,,,0.0047,,,,,
T147V,0.124,,,,0.108,0.0872,,0.0838,,0.0872
D137S,0.173,0.108,,0.0943,0.108,,,0.102,,0.103
G138P,0.101,0.0838,,,0.0605,0.0878,,,,
Q75D,0.056,0.058,,0.053,,0.0712,,,,0.04
Q198S,0.134,0.112,,0.0783,0.11,0.0893,0.107,0.107,0.121,0.0951
S201N,0.111,0.0984,0.0783,0.0928,,0.103,0.0797,0.0708,0.121,0.0806
D128T,0.129,0.127,,,0.162,,,0.105,,
E223A,0.115,,,,,,,0.0897,,
T70F,0.0943,0.0827,,,0.0838,,,0.0755,,0.0558
Y12R,0.122,0.12,0.123,0.103,,0.0837,,0.129,,
K185N,0.114,,0.0713,0.0937,,,0.103,,0.111,
A170S,0.0691,0.064,,0.0569,,,,0.0632,0.0564,
E3A,0.118,,,,0.172,0.0862,0.0935,0.111,0.118,0.102

# Same assay, conditions: temperature: 34 °C; time window: 0-4 h after rhamnose induction
Variant,area with substrate ELLYFQS,area with substrate EWLYFQS,area with substrate EDLYFQS,area with substrate ETLYFQS,area with substrate EELYFQS,area with substrate EYLYFQS,area with substrate ECLYFQS,area with substrate EPLYFQS,area with substrate EFLYFQS
R109Y,0.119,0.0951,,,,,,,
S4A,,,0.119,0.113,,,,,
G214E,,,,0.116,,,,,
T159V,,,,,0.115,,,,
T159K,,0.0991,,,,,,,
P93C,0.0516,,0.162,,,,,,
G2I,,0.133,,,0.224,0.165,,,
G2K,0.108,0.143,,0.137,0.188,0.141,0.162,,
T174C,,,,0.0848,,,,0.0887,
T174E,,,,,,,,0.0837,
L99E,0.0395,0.051,,,,,,,
S124C,0.0763,,,,,0.0848,,,0.1
T30D,,,,,0.0827,,,0.12,
S182V,,,,0.111,,,,,
S182C,0.136,,0.105,,,,,0.139,
R102E,,,,0.059,0.0626,,,,
N206R,0.0774,,,,,0.08,,,
R87V,,0.0982,,,,,,,
R87N,,,,,,,,0.0927,

Variant,area with substrate ELLYFQS,area with substrate EWLYFQS,area with substrate EDLYFQS,area with substrate ETLYFQS,area with substrate EELYFQS,area with substrate EYLYFQS,area with substrate ECLYFQS,area with substrate EPLYFQS,area with substrate EFLYFQS
S60W,0.0931,,,,,,,0.164,
K66E,,0.0917,,,,0.112,,,
K66W,,,,0.0774,,0.113,,,
F117P,,,,0.11,0.168,,,0.115,
L235C,,,,0.119,,0.0833,,,0.0918
L235P,,,,,,,,0.104,
L235T,,,,,,0.0641,,,
L156Y,0.055,,,0.0611,0.0536,,,,
T147V,,,,0.11,0.111,,,0.0935,0.116
D137S,0.0922,,0.231,,,,,,
Q75D,0.0564,0.0213,,,,,,,
Q198S,0.0675,,,0.131,,0,,,
S201N,0.0861,0.0863,,0.0467,,0.106,,,
D128T,,0.116,0.148,,,0.127,,,
T70F,,,,,,,,,0.0574
Y12R,,0.0883,0.134,,0.12,0.124,,0.0946,
K185N,,,,,0.143,,,0.134,
A170S,,0.0676,0.076,0.0897,,,,,
E3A,0.0786,,,0.114,0.155,,,0.126,

# Reference: the supplement of paper PMC12217912
